Measured values: PubChem BioAssay AID588342 (National Center for Advancing Translational Sciences (NCATS), 2011)
Among all 360,000 compounds or so, about 25,000 (6.9%) were called active. This list was built around the results that the source calls inconclusive (neither active nor inactive); the mix of calls is not that of the screen. Calls come from the whole dose curve; as a rule, active = well fitted inhibition curve with a large enough effect; inconclusive = small, poorly fitted or top-dose-only effect; inactive = flat fitted curve, though single readings scatter. A potency beside an inconclusive call is a rough fit, not a confirmed value.

biological target: Luciferin 4-monooxygenase (Photinus pyralis) (UniProt P08659); test: qHTS profiling assay for firefly luciferase inhibitor/activator using purifed enzyme and Km concentrations of substrates (counterscreen for miR-21 project); conditions: purified FLuc, luminescence inhibition; series mostly up to 57.5 µM; note: nearly all actives have a fitted effect of over 55% in size
Sequence of UniProt P08659 (P08659 whole entry, looked up): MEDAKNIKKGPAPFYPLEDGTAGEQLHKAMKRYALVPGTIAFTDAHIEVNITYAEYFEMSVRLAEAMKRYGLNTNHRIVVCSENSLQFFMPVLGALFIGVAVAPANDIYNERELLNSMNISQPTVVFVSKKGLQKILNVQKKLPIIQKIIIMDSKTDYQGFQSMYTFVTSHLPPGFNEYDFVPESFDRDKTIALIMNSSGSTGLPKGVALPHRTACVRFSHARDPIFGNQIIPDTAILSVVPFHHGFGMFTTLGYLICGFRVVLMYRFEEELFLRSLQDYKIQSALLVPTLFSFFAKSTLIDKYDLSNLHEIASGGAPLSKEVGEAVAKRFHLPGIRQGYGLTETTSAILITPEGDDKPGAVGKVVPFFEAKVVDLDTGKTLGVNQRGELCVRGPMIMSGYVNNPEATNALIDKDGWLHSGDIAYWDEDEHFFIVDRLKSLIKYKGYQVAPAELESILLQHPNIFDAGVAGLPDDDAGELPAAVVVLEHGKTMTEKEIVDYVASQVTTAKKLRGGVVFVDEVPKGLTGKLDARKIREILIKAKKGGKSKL
In short: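 Biochemical qHTS of compounds, final roughly 60 µM downward over six points, against 10 nM purified firefly luciferase using Km concentrations of substrates (10 uM D-luciferin, 10 uM ATP) in Tris acetate pH 7.5 buffer; luminescence output.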
Potency is the fitted concentration of half-maximal effect; tags give direction and shape of the fitted curve.

SMILES | Potency
CCOC(=O)C1=C(O)/C(=C\c2cc(C)n(-c3ccccc3F)c2C)N=C1C | active: 0.601 µM
COc1cccc(-c2nc(CC(=O)O)cs2)c1OC | inactive
CCOC(=O)c1ccc(NC(=S)N2CCCC(C)C2)cc1 (centres undefined) | inconclusive: 37.9 µM [inhibitor, partial curve, poor fit]
Cc1ccc(NC(=S)Nc2cc(-c3ccccc3)[nH]n2)cc1Cl | inconclusive: 21.3 µM [inhibitor, single point]
CCC(C)C(=O)N1CCc2cc(-c3csc(N)n3)ccc21 (centres undefined) | active: 5.36 µM
CC(C)c1nc2sc3c(=S)nc[nH]c3c2c2c1CCC2 | inconclusive: 23.9 µM [inhibitor, single point]
Cc1ccc2nc(SCC(=O)Nc3cccc(S(=O)(=O)NC4=NCCCCC4)c3)[nH]c2c1 | inconclusive: 23.9 µM [inhibitor, partial curve, poor fit]
Cc1ccc(C(=O)COC(=O)c2cn3ccccc3n2)cc1 | inconclusive: 26.9 µM [inhibitor, single point]
CS/C(N)=N/N=C/c1cc(C)ccc1O | active: 1.2 µM
N#CC1=C2SCN(C3CCCCC3)CN2C(=O)CC1c1ccc(F)cc1 (centres undefined) | inconclusive: 23.9 µM [inhibitor, single point]
O=C(NN1C(=O)C2C(c3ccccc3)C=CC(c3ccccc3)C2C1=O)c1ccncc1 (centres undefined) | inconclusive: 13.5 µM [inhibitor, partial curve, poor fit]
CC1=C(Nc2ccc(C(=O)O)cc2)C(=O)c2ccccc2C1=O | inconclusive: 23.9 µM [inhibitor, single point]
O=C(O)c1ccccc1-c1ccccc1C(=O)NCc1ccccc1F | inactive
CCC1CCCCN1C(=O)c1ccc(OC2CCN(C(=O)C3CC3)CC2)cc1 (centres undefined) | inactive
COc1cccc(C(=O)Nc2ccc(F)c(F)c2F)c1 | active: 16.9 µM
CCc1ccccc1NC(=O)C1=CN2CCS(=O)(=O)N=C2C=C1 | inactive
O=C(c1cc2cc([N+](=O)[O-])ccc2s1)N1CCCCC1 | inconclusive: 21.3 µM [inhibitor, partial curve, poor fit]
COc1ccc2c(=O)cc(-c3ccccc3F)oc2c1 | active: 21.3 µM
COc1ccc(OC)c(NC(=O)C2CC2c2ccccc2)c1 (centres undefined) | inconclusive: 37.9 µM [inhibitor, partial curve, poor fit]
COCCNC(=S)N1CCN(c2nc(-c3cccc(OC)c3)cs2)CC1 | inconclusive: 30.1 µM [inhibitor, single point]
O=C(CCS(=O)(=O)c1cccs1)N1CCCC1 | inconclusive: 37.9 µM [inhibitor, partial curve, poor fit]
CC1C(=O)N2CCCc3cc(S(=O)(=O)Nc4ccc(Br)cc4F)cc1c32 (centres undefined) | inconclusive: 21.3 µM [inhibitor, partial curve]
C=CCC1(CC=C)CCCN1C(=O)c1cc(COc2ccc(C)nc2)on1 | active: 19 µM
CNC(=S)Nc1ccc(-c2nc3ccc(C)cc3s2)cc1 | active: 1.35 µM
CCOc1cc(-c2nnc(SCC(=O)NCc3ccc(C)cc3)nc2-c2ccc(OC)c(OCC)c2)ccc1OC | inactive

SMILES | Potency
CN(CC(=O)Nc1ccc(N2CCOCC2)cc1)C(=O)CCCOc1ccc(Cl)cc1Cl | inconclusive: 37.9 µM [inhibitor, single point]
O=C(NNC(=O)c1cc2ccccc2o1)c1ccc(F)cc1 | active: 16.9 µM
CCc1ccc(NC(=O)C2(C)Cc3ccccc3C(=O)O2)cc1 (centres undefined) | inconclusive: 26.9 µM [inhibitor, partial curve]
Cc1ccc(NC(=O)C(=O)NN=C2CCCC2)cc1C | active: 13.5 µM
COc1ccc2c(c1)CC/C2=N\OC(=O)c1ccccc1OC | active: 3.01 µM
O=C(CSc1nc2ccccc2o1)NCC1CCCO1 (centres undefined) | inactive
O=C1c2ccccc2C(=O)N1c1ccc(-c2nc3ccccc3o2)cc1 | inconclusive: 0.849 µM [inhibitor, partial curve, poor fit]
CC1CCN(C2=NC(=O)/C(=C/c3cn[nH]c3-c3ccccc3)S2)CC1 | inconclusive: 3.01 µM [inhibitor, full curve]
COc1cccc(-c2cc(C(=O)Nc3ccc(F)cc3)[nH]n2)c1 | active: 1.69 µM
Clc1ccc(OCc2nc(-c3ccc(Br)o3)no2)cc1 | inconclusive: 21.3 µM [inhibitor, single point]
O=C(COc1ccccc1)NCC(=O)N/N=C/c1cccs1 | inconclusive: 26.9 µM [inhibitor, partial curve, poor fit]
COc1cccc(CNC(=O)CCc2c(C)nn(-c3ccc(N4CCOCC4)nn3)c2C)c1 | inactive
O=C(Cc1ccc(NS(=O)(=O)c2ccc(F)cc2)cc1)NCc1ccccc1 | inconclusive: 33.8 µM [inhibitor, partial curve, poor fit]
O=C(/C=C/Nc1ccccc1C(F)(F)F)c1ccco1 | active: 1.2 µM
COc1cc2[nH]c(=O)n(Cc3ccc(C(=O)NC4CCCC4)cc3)c(=O)c2cc1OC | inactive
O=C(O)c1cc(-c2ccc(N3CCOCC3)cc2)nn1-c1ccccc1Cl | inconclusive: 23.9 µM [inhibitor, single point]
COc1ccc2[nH]c(=O)c(CNc3ccc(C)cc3C)cc2c1 | inconclusive: 42.6 µM [inhibitor, partial curve, poor fit]
CC(C)c1ccc(NC(=O)COc2ccccn2)cc1 | inconclusive: 26.9 µM [inhibitor, single point]
CCc1cc(C(=O)N2CCCC(CCC(=O)N3CCN(c4ccccn4)CC3)C2)no1 (centres undefined) | inactive
Cc1ccc(OCC(=O)N2CCc3ccccc3C2)c(C)c1 | inconclusive: 16.9 µM [inhibitor, partial curve]
c1ccc(-c2nc(CSc3n[nH]c(-c4cccs4)n3)cs2)cc1 | inconclusive: 30.1 µM [inhibitor, partial curve, poor fit]
COC(=O)c1cccc(NC(=O)Nc2ccc(Cl)cc2)c1 | active: 2.69 µM
CCCN1C(=O)C2(c3ccccc31)c1c(oc3cc(C)c(C)cc3c1=O)C(=O)N2CCCOC (centres undefined) | inactive
CC(=O)Nc1cccc(C(=O)N/N=C/c2c[nH]c3ccccc23)c1 | active: 15.1 µM
COCCCNC(=S)N1CCN(c2nc(-c3ccc(F)cc3)cs2)CC1 | inconclusive: 16.9 µM [inhibitor, partial curve]

SMILES | Potency
O=C(Nc1cccc(-c2cn3c(n2)SCC3)c1)c1ccc2c(c1)OCO2 | active: 10.7 µM
O=C(Nc1ccc(Br)cc1)c1cc(-c2cccs2)on1 | inactive
Cc1ccc(C(=O)NC2(O)C(=O)c3ccccc3C2=O)cc1C | active: 2.39 µM
CCCc1cc(=O)[nH]c2nnc(SCCC(C)C)n12 | inconclusive: 37.9 µM [inhibitor, partial curve, poor fit]
Cc1cc(C)cc(OCCSc2nc(-c3ccc(C(C)(C)C)cc3)nc3cc(=O)[nH]n23)c1 | inconclusive: 26.9 µM [inhibitor, single point]
Cc1cc(Nc2cccc(O)c2)c2cccc(Br)c2n1 | inconclusive: 37.9 µM [inhibitor, partial curve, poor fit]
O=C(NNc1nc2cc3c(cc2s1)OCO3)c1ccc(F)cc1 | inconclusive: 23.9 µM [inhibitor, partial curve, poor fit]
Cc1ccc(NC2=CC(=O)CC(C)(C)C2)cc1Cl | inactive
CCc1ccc(S(=O)(=O)c2cn(CC(=O)Nc3cccc(C)c3)c3ccc(Cl)cc3c2=O)cc1 | inactive
CCCC(C)NC(=O)c1ccc2[nH]c3c(c2c1)CC(C)CC3 (centres undefined) | inconclusive: 10.7 µM [inhibitor, partial curve, poor fit]
CCOc1ccc(OCC(=O)c2c(O)c3ccccc3oc2=O)cc1 | inconclusive: 26.9 µM [inhibitor, single point]
CCOC(=O)CC1C(=O)NCCN1C(=O)c1ccc(Cl)c(Cl)c1 (centres undefined) | inactive
COc1ccc(C(=O)c2sc(Nc3ccc(NC(C)=O)cc3)nc2C)cc1 | inconclusive: 30.1 µM [inhibitor, partial curve, poor fit]
COc1cc(/C=C2\SC(=O)N(CCN)C2=O)ccc1OS(=O)(=O)c1cc(C)ccc1C | inconclusive: 26.9 µM [inhibitor, partial curve, poor fit]
Cc1c(CC(=O)N[C@@H](C)C(=O)O)c(=O)oc2cc3oc4c(c3cc12)CCCC4 | active: 16.9 µM
O=C(NCCc1csc(-c2ccc(F)cc2)n1)C(=O)Nc1ccc(Cl)cc1 | inactive
CCOC(=O)CN(C(=O)CN1CCC(n2nnc3cc(C)ccc32)CC1)c1ccccc1 | inactive
O=C(CCCN1C(=O)/C(=C/c2cccs2)SC1=S)Nc1ccc(C(=O)O)cc1 | inconclusive: 23.9 µM [inhibitor, partial curve, poor fit]
O=C(/C=C/c1cn(CC(O)CN2CCc3ccccc32)c2ccccc12)c1ccc(Br)cc1 (centres undefined) | inactive
CCCn1c(N)c(C(=O)CSc2nc(C)nc3sc(C)c(C)c23)c(=O)[nH]c1=O | inactive
Cc1ccc(-n2ncc3c2CC(C)(C)CC3NC(=O)c2ccccn2)cc1 (centres undefined) | inconclusive: 37.9 µM [inhibitor, partial curve, poor fit]
CC1CN(C(=O)COC(=O)COc2ccc(C#N)cc2)CC(C)O1 (centres undefined) | inactive
O=C(Nc1ccc(O)cc1)C1CCCN1S(=O)(=O)c1ccc(F)cc1 (centres undefined) | inactive
O=C(O)C(=O)/C(=C\c1ccc(Cl)cc1)c1ccc2ccccc2n1 | inconclusive: 26.9 µM [inhibitor, single point]
